Measurements published in PMC4336329 (PLoS ONE, 2015).
The whole screen tested about 310,000 compounds, of which about 14,000 (4.5%) showed an effect of 50% or more. Effects have a minus sign here. The list shows a part of the results.

Target: human ether-à-go-go-related gene (hERG) potassium channel (human, UniProt Q12809)
Test: primary screen, population patch clamp on CHO cells stably expressing hERG
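Note: peak tail current of the secondary pulse compared with the same well before compound.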

human ether-à-go-go-related gene (hERG) potassium channel, sequence (Q12809 whole entry, looked up): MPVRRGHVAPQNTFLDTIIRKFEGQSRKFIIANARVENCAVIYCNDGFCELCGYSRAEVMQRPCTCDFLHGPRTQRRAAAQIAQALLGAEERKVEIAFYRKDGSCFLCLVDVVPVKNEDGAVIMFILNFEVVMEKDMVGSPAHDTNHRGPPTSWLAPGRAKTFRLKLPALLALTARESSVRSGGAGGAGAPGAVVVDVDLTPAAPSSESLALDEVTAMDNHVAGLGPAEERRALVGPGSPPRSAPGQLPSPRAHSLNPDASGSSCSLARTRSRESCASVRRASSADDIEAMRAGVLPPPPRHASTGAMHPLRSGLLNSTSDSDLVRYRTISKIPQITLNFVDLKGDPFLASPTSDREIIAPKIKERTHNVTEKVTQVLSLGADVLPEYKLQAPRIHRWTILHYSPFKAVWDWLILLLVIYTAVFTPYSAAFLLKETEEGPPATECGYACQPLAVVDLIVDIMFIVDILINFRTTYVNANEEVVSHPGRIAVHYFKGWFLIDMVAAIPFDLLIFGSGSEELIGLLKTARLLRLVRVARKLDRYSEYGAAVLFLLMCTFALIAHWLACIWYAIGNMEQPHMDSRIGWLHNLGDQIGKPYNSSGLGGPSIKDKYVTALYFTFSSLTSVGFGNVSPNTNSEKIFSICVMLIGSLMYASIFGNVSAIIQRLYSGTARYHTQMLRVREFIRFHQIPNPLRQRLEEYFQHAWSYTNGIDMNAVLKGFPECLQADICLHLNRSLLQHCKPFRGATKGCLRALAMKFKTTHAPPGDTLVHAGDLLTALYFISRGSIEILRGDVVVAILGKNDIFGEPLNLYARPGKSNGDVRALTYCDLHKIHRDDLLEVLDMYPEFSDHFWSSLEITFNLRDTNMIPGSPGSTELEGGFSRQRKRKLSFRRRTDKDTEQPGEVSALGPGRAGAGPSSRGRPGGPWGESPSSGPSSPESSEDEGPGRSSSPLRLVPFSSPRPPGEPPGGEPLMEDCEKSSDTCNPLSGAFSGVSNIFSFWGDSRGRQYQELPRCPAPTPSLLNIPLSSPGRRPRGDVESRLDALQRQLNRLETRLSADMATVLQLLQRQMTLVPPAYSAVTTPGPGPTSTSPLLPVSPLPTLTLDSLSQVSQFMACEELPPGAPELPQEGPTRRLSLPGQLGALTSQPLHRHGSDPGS

| Compound | hERG current change (%, negative = inhibition) at 10uM [%] |
| --- | --- |
| CCOc1ccc(N/C(N)=N/c2nc(C)cc(C)n2)cc1 | -46.5 |
| O=S(=O)(c1ccc(F)cc1)N1CCC2(CC1)OCCN2S(=O)(=O)c1cccs1 | -10.9 |
| COC(=O)C1=C(c2ccc3ccccc3c2)C[C@@H]2CC[C@H]1N2C(=O)NCc1ccc(F)cc1 | 13.3 |
| CC[C@H](C)[C@H](NC(=O)OCc1ccccc1)C(=O)Nc1ccc(NC(C)=O)cc1 | 20.4 |
| O=C(O)c1ccccc1N/N=C/c1cc(Br)cc(Br)c1O | 11.6 |
| O=C(c1cccc([N+](=O)[O-])c1)N1CCN(c2ccc(Cl)cc2)CC1 | -41.1 |
| O=C(COC(=O)CCC(=O)c1ccc(F)cc1)Nc1nnc(-c2ccccc2)o1 | -17.4 |
| COC(=O)C(CC(=O)Nc1cc(C)ccc1C)Nc1ccccc1OC (stereo not shown) | -4.65 |
| COc1cccc(NC(=O)CN(C)C(C)C(=O)Nc2ccc(S(=O)(=O)N3CCOCC3)cc2)c1 (stereo not shown) | -15.1 |
| COc1ccc(N2C(=O)NC(=O)/C(=C\c3ccccc3[N+](=O)[O-])C2=O)cc1 | 22.4 |
| Cc1ccc(C2(C)NC(=O)N(CC(=O)N3CCN(S(=O)(=O)c4cccs4)CC3)C2=O)cc1 (stereo not shown) | -31.9 |
| CCCOc1ccc(C2/C(=C(/O)c3ccccc3)C(=O)C(=O)N2CCCN(C)C)cc1OC (stereo not shown) | 5.35 |
| CN(C)CCCNS(=O)(=O)c1ccc(N2CCC(c3ccc(Cl)cc3)=N2)cc1 | 0.0494 |
| Cc1ccc2nc(N(CCCN(C)C)C(=O)c3sc4ccccc4c3Cl)sc2c1.Cl | -29.9 |
| Clc1cccc(Cl)c1/C=C/c1ccn[nH]1 | 20.2 |
| Cc1cc(C)c2c3c(cn2n1)c(=O)n(C)c(=O)n3C | 1.6 |
| Fc1ccc2[nH]c3c(Cl)ncnc3c2c1 | 10.8 |
| Cc1cccc(N=C2NC(=O)/C(=C\c3cccs3)S2)c1 | 12.7 |
| O=[N+]([O-])c1ccc(Cc2ccccn2)cc1 | -15.7 |
| Cc1cc(Cl)c(S(=O)(=O)N2CCCCCC2)cc1OCC(N)=O | -20.8 |
| Cc1nnc(SCCn2c(N3CCCC(C)C3)nc3c2c(=O)n(C)c(=O)n3C)s1 (stereo not shown) | -5.21 |
| CCN1CCN(C(=O)c2ccc3c(c2)N(Cc2ccc(F)cc2)C(=O)c2ccccc2S3=O)CC1 (stereo not shown) | -9.09 |
| CCN(CC)S(=O)(=O)c1cccc2cc(C(=O)O)c(O)cc12 | -2.34 |
| Cc1cc2cc(C)c(NCCNC(=O)c3ccccc3F)nc2cc1C | -31.2 |
| CC1c2[nH]c3ccccc3c2C[C@H]2C(=O)N(CCCO)CC(=O)N12 (stereo partly shown) | 23 |
| O=C(Nc1ccc(C(=O)O)cc1)Nc1cccc2ccccc12 | 19.5 |
| OCCN1CN=C(Nc2nc3ccccc3s2)NC1 | -6.04 |
| COc1ccccc1N1CCN(C(=O)Nc2cccc(C)c2)CC1 | -3.99 |

| Compound | hERG current change (%, negative = inhibition) at 10uM [%] |
| --- | --- |
| COc1ccc(-c2csc(NC(=O)Cc3cc(OC)c(OC)c(OC)c3)n2)cc1OC | -1.22 |
| CCOC(=O)C(=O)Nc1nnc(C2CCCCC2)s1 | -5.64 |
| O=C(Nc1nc2ccc(Cl)cc2s1)c1cccc(N2C(=O)CCC2=O)c1 | 9.49 |
| COc1cccc(C2c3[nH]c4ccccc4c3C[C@H]3C(=O)N(c4ccccc4C(=O)NCCCN4CCOCC4)C(=O)N23)c1 (stereo partly shown) | -19.9 |
| CN(C)S(=O)(=O)c1ccc2c(c1)nc(CCC(=O)Nc1ccc(N3CCOCC3)cc1)n2C | 15.6 |
| Cc1cc(C)c(C)c(S(=O)(=O)NC2CCCCC2)c1C | 15 |
| COc1ccc(CNC(=O)C2Cc3cc(S(=O)(=O)N4CCCC4)ccc3N2C(C)=O)c(OC)c1 (stereo not shown) | 13.1 |
| CC(C)(C)C1CCC(OC(=O)CN2CCCCC2)CC1 (stereo not shown) | 12.5 |
| CC(C)c1nnc(SCC(=O)NCCC2=CCCCC2)n1N | 2.43 |
| Cc1ccc(S(=O)(=O)N2CCCC(c3nc4c(nnn4Cc4ccc5c(c4)OCCO5)c(=O)[nH]3)C2)cc1 (stereo not shown) | 5.51 |
| COc1ccc(C)cc1NC(=O)COC(=O)c1ccc2c(c1)OCCO2 | 5.45 |
| CCOC(=O)C1=C(C)Nc2nnnn2C1c1ccccc1Cl (stereo not shown) | -7.31 |
| CN(C)c1ccc(CNS(=O)(=O)c2ccc3c(c2)NC(=O)CS3)cc1 | -4.85 |
| O=C1NCC(=O)N(Cc2ccccc2)/C1=C/c1ccccc1 | 7.4 |
| Cc1nc2cc(C(F)(F)F)ccc2n1C1CCN(CC(=O)N2CCCC2)CC1 | -13.1 |
| Cc1ccn2cc(CCNC(=O)COc3ccccc3)nc2c1 | -34.3 |
| Cc1ccc(-c2ccc(/C=N/O)o2)cc1[N+](=O)[O-] | 8.19 |
| CCS(=O)(=O)Nc1cccc(C2=NN(C(=O)c3ccco3)C(c3ccco3)C2)c1 (stereo not shown) | -4.98 |
| Cc1c(C)n(-c2ccccc2)c2ncnc(NCCN(C)C)c12 | -4.04 |
| O=C(NNc1c(Cl)cccc1Cl)c1cccs1 | -7.95 |
| O=C(C1CC1)N1CCc2cc(Br)cc(S(=O)(=O)N3CCOCC3)c21 | -1.21 |
| CC(=O)Nc1ccc(S(=O)(=O)NCCC(=O)OCc2nnc(-c3ccccc3)o2)cc1 | -16.5 |
| Cc1ccc(N=Nc2c(C)[nH]n(-c3ccccc3)c2=O)cc1 | -8.57 |
| O=C(NCC1COc2ccccc2O1)c1ccco1 (stereo not shown) | -5.32 |
| COC(=O)C(NNc1ccccc1)(NC(=O)c1cccc(F)c1)C(F)(F)F (stereo not shown) | 13 |
| CC(=O)NC(=S)Nc1ccccc1N1CCCCC1 | -8.02 |
| Cc1ccc(-n2cc(CN(C)Cc3nccn3C)c(-c3cccc(C)c3)n2)cc1 | -16.1 |
